This note sets out measurements from the antibiotic and cytotoxicity screens of Wong et al. (2023).

Structures are written as SMILES. The list shows a part of the results.

One experiment deals with HSkMC. The experiment can be described thus: cytotoxicity call (relative viability < 0.9). Conditions: 10 µM.
A further experiment has as its system S. aureus RN4220. As to the kind of experiment: growth inhibition call (relative growth <= 0.2). Particulars: 50 µM.

As to `COc1ccc(NC(=O)N(C)C[C@@H]2Oc3ccc(NS(=O)(=O)c4c(C)noc4C)cc3C(=O)N([C@@H](C)CO)C[C@H]2C)cc1`, the cytotoxicity call in the experiment on HSkMC was “inactive”. The growth inhibition call with S. aureus RN4220 is “inactive”.

Turning to `C[C@H](CO)N1C[C@H](C)[C@@H](CN(C)S(=O)(=O)c2cn(C)cn2)Oc2ccc(NC(=O)Cc3cn(C)c4ccccc34)cc2C1=O`, the cytotoxicity call in the experiment on HSkMC is “inactive”. The growth inhibition call in the experiment on S. aureus RN4220 is “inactive”.

Regarding `Cn1nnnc1NCc1ccccc1`, the cytotoxicity call with HSkMC is “inactive”. The growth inhibition call in the experiment on S. aureus RN4220 is “inactive”.

As to `O=c1[nH]c(=O)n([C@H]2C[C@H](O)[C@@H](CO)O2)cc1F`, the cytotoxicity call in the experiment with HSkMC was “inactive”. In the experiment on S. aureus RN4220, the growth inhibition call is “active”.

Take `C=CC[C@H](CC(=O)N(CCO)Cc1ccccc1)C(=O)N[C@@H](COC(=O)[C@H](CC=C)CC(=O)OC(C)(C)C)Cc1c[nH]c2ccccc12`: the cytotoxicity call with HSkMC is “inactive”. Besides, the growth inhibition call in the experiment with S. aureus RN4220 is “inactive”.

For the compound `C[C@H]1CCCCO[C@@H](CN(C)Cc2ccc(Cl)c(Cl)c2)[C@@H](C)CN([C@@H](C)CO)C(=O)c2cc(NC(=O)Nc3ccc(C(F)(F)F)cc3)ccc2O1`, the cytotoxicity call with HSkMC is “inactive”. Besides, the growth inhibition call in the experiment with S. aureus RN4220 was “inactive”.

`CN(C)CCCCNC(=O)[C@@H]1C[C@@H]2C(=O)N[C@@H](CCCC[N+](C)(C)C)C(=O)N2[C@@H]1c1ccc(O)cc1`: in the experiment with HSkMC, the cytotoxicity call was “inactive”. The growth inhibition call in the experiment with S. aureus RN4220 was “inactive”.

With `CCOc1nc(N2CCOCC2)nc(N2CCOCC2)n1`, the cytotoxicity call in the experiment with HSkMC is “inactive”. Also, the growth inhibition call with S. aureus RN4220 is “inactive”.

For the compound `NC(=O)CCN1CCn2c1nc1ccccc12`, the cytotoxicity call in the experiment with HSkMC is “inactive”. In addition, the growth inhibition call in the experiment on S. aureus RN4220 is “inactive”.

As to `Cc1noc(C)c1S(=O)(=O)N(C)C[C@H]1OCCCC[C@H](C)Oc2ccc(NS(C)(=O)=O)cc2C(=O)N([C@@H](C)CO)C[C@@H]1C`, the cytotoxicity call with HSkMC is “inactive”. The growth inhibition call in the experiment with S. aureus RN4220 was “inactive”.

In the case of `C[C@H](CO)N1C[C@H](C)[C@H](CN(C)S(=O)(=O)c2ccccc2)Oc2ccc(NS(=O)(=O)c3cn(C)cn3)cc2CC1=O`, the cytotoxicity call in the experiment on HSkMC is “inactive”. In addition, the growth inhibition call in the experiment on S. aureus RN4220 was “inactive”.

`CCCCC(CC)COC(=O)C=Cc1ccc(OC)cc1` (stereo not given): the cytotoxicity call with HSkMC is “inactive”. Also, the growth inhibition call in the experiment on S. aureus RN4220 is “inactive”.

Consider `COc1ccc(CN(C)C[C@@H]2Oc3ccc(NC(=O)Nc4cccc5ccccc45)cc3C(=O)N([C@H](C)CO)C[C@H]2C)cc1`, for which, in the experiment with HSkMC, the cytotoxicity call is “inactive”. Further, the growth inhibition call with S. aureus RN4220 was “inactive”.

With `C[C@@H]1CN([C@H](C)CO)C(=O)c2cccc(NC(=O)Nc3ccc(C(F)(F)F)cc3)c2O[C@@H]1CN(C)C(=O)Nc1ccc2c(c1)OCO2`, the cytotoxicity call in the experiment on HSkMC is “inactive”. Also, the growth inhibition call in the experiment on S. aureus RN4220 was “inactive”.

`NS(=O)(=O)c1ccc(O)c([N+](=O)[O-])c1`: the cytotoxicity call with HSkMC was “inactive”. Besides, the growth inhibition call in the experiment on S. aureus RN4220 is “inactive”.

As for `C[C@@H]1CN([C@@H](C)CO)C(=O)c2cc(NC(=O)Cn3cnnn3)ccc2O[C@H]1CN(C)Cc1ccc(-c2ccccc2)cc1`, the cytotoxicity call in the experiment with HSkMC was “inactive”. In addition, in the experiment on S. aureus RN4220, the growth inhibition call is “inactive”.

`COc1ccc(NC(=O)Nc2ccc3c(c2)C(=O)N([C@H](C)CO)C[C@H](C)[C@H](CN(C)S(=O)(=O)c2ccc(Cl)cc2)OCCCC[C@@H](C)O3)cc1`: in the experiment on HSkMC, the cytotoxicity call is “inactive”. In the experiment on S. aureus RN4220, the growth inhibition call is “inactive”.

For `C[C@@H]1CCCCO[C@H](CN(C)CC2CCCCC2)[C@H](C)CN([C@@H](C)CO)C(=O)c2cc(NC(=O)c3ccncc3)ccc2O1`, in the experiment on HSkMC, the cytotoxicity call is “inactive”. Moreover, in the experiment with S. aureus RN4220, the growth inhibition call is “inactive”.

Consider `CN(C)C(=O)C[C@H]1CC[C@H](NC(=O)C2CCOCC2)[C@H](CO)O1`, for which the cytotoxicity call in the experiment with HSkMC is “inactive”. Besides, in the experiment with S. aureus RN4220, the growth inhibition call is “inactive”.

Consider `COc1ccc(S(=O)(=O)Nc2ccc3c(c2)C(=O)N([C@H](C)CO)C[C@@H](C)[C@H](CN(C)Cc2ccc(C(F)(F)F)cc2)OCCCC[C@H](C)O3)cc1`, for which the cytotoxicity call in the experiment on HSkMC is “inactive”. In addition, the growth inhibition call with S. aureus RN4220 is “inactive”.

For `C[C@@H]1CN([C@H](C)CO)C(=O)Cc2cc(NS(=O)(=O)c3ccc(F)cc3)ccc2O[C@H]1CN(C)S(=O)(=O)c1cccs1`, in the experiment on HSkMC, the cytotoxicity call is “inactive”. The growth inhibition call in the experiment with S. aureus RN4220 was “inactive”.

Consider `Cc1ccc(S(=O)(=O)N(C)C[C@@H]2OCCCC[C@@H](C)Oc3ccc(NC(=O)NC4CCCCC4)cc3C(=O)N([C@@H](C)CO)C[C@H]2C)cc1`, for which the cytotoxicity call with HSkMC is “inactive”. In addition, the growth inhibition call in the experiment on S. aureus RN4220 was “inactive”.

With `O=S(=O)(NCCCCN(C/C=C/c1ccccc1)C/C=C/c1ccccc1)c1cccc2cnccc12`, the cytotoxicity call in the experiment on HSkMC was “inactive”. In addition, in the experiment with S. aureus RN4220, the growth inhibition call was “inactive”.

For the compound `C[C@H](CO)N1C[C@H](C)[C@@H](CN(C)Cc2ccc(Oc3ccccc3)cc2)Oc2ccc(NC(=O)Cc3cn(C)c4ccccc34)cc2CC1=O`, the cytotoxicity call in the experiment with HSkMC was “inactive”. The growth inhibition call with S. aureus RN4220 is “inactive”.

In the case of `C[C@H]1CN([C@@H](C)CO)C(=O)Cc2cc(NS(C)(=O)=O)ccc2O[C@H]1CN(C)C(=O)Nc1ccc(F)cc1`, the cytotoxicity call with HSkMC was “inactive”. Further, the growth inhibition call in the experiment with S. aureus RN4220 is “inactive”.

Turning to `C[C@@H]1CN([C@H](C)CO)C(=O)c2cccc(NC(=O)c3cnccn3)c2O[C@@H]1CN(C)C(=O)NC1CCCCC1`, in the experiment with HSkMC, the cytotoxicity call is “inactive”. For the same compound, the growth inhibition call with S. aureus RN4220 was “inactive”.

For the compound `OCC1c2ccccc2-c2ccccc21`, the cytotoxicity call in the experiment with HSkMC was “inactive”. Moreover, the growth inhibition call in the experiment with S. aureus RN4220 was “inactive”.

As for `Cc1noc(C)c1NC(=O)Nc1ccc2c(c1)C(=O)N([C@@H](C)CO)C[C@H](C)[C@@H](CN(C)Cc1ccc(Cl)c(Cl)c1)OCCCC[C@H](C)O2`, the cytotoxicity call in the experiment with HSkMC is “inactive”. Moreover, the growth inhibition call in the experiment with S. aureus RN4220 is “inactive”.

Turning to `COc1ccc(S(=O)(=O)N(C)C[C@@H]2Oc3ccc(NS(=O)(=O)c4c(C)noc4C)cc3CC(=O)N([C@@H](C)CO)C[C@H]2C)cc1`, in the experiment on HSkMC, the cytotoxicity call is “inactive”. The growth inhibition call in the experiment with S. aureus RN4220 was “inactive”.

`C[C@@H]1CN([C@@H](C)CO)C(=O)c2cccc(NS(=O)(=O)c3ccccc3)c2O[C@H]1CN(C)Cc1ccc(-c2ccccc2)cc1`: in the experiment on HSkMC (human skeletal muscle cells), the cytotoxicity call is “inactive”. For the same compound, the growth inhibition call with S. aureus RN4220 was “inactive”.
